The values that follow come from the supplement of paper PMC4604168 (melanoma cell lines).

The list shows a part of the results. Many values rest on one well or one pass, so single values are uncertain.
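Note: cell number obtained by counting DAPI-stained nuclei in high-throughput microscope images with image analysis software, screen run in 1,536-well plates.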

The test deals with IST-MEL1. Put plainly: cell count relative to DMSO control; melanoma cells; higher = more viable cells. Particulars: library dose: low library concentration; 72 h.
On to `CCN(CC)CCNC(=O)c1c(C)[nH]c(/C=C2\C(=O)Nc3ccc(F)cc32)c1C` [sunitinib] + CN(c1ncccc1CNc1nc(Nc2ccc3c(c2)CC(=O)N3)ncc1C(F)(F)F)S(C)(=O)=O [PF562271] (first compound 0.4 µM, partner dose 0.08 µM), for which the cell count came to 108%.

In turn, `CCN(CC)CCNC(=O)c1c(C)[nH]c(/C=C2\C(=O)Nc3ccc(F)cc32)c1C` [sunitinib] + NC1(c2ccc(-c3nc4ccn5c(=O)[nH]nc5c4cc3-c3ccccc3)cc2)CCC1 [MK2206] (first compound 0.4 µM, partner dose 0.4 µM) showed a cell count of 92.9%.

As for `Cn1cnc2c(F)c(Nc3ccc(Br)cc3Cl)c(C(=O)NOCCO)cc21` [selumetinib] + CNC(=O)c1cc(Oc2ccc(NC(=O)Nc3ccc(Cl)c(C(F)(F)F)c3)cc2)ccn1 [sorafenib] (first compound 0.015 µM, partner dose 0.4 µM), the cell count was 93%.

Compound `Cn1cnc2c(F)c(Nc3ccc(Br)cc3Cl)c(C(=O)NOCCO)cc21` [selumetinib] + Cc1cc(Nc2cc(N3CCN(C)CC3)nc(/C=C/c3ccccc3)n2)n[nH]1 [ENMD2076] (first compound 0.015 µM, partner dose 0.04 µM) displayed a cell count of 108%.

With `COc1cc([C@@H]2c3cc4c(cc3[C@@H](O[C@@H]3O[C@@H]5CO[C@@H](C)O[C@H]5[C@H](O)[C@H]3O)[C@H]3COC(=O)[C@H]23)OCO4)cc(OC)c1O` [etoposide] + Nc1nc(F)nc2c1ncn2[C@@H]1O[C@H](CO)[C@@H](O)[C@@H]1O [fludarabine] (first compound 0.02 µM, partner dose 0.2 µM), the cell count worked out at 94.1%.

Consider `COc1cc([C@@H]2c3cc4c(cc3[C@@H](O[C@@H]3O[C@@H]5CO[C@@H](C)O[C@H]5[C@H](O)[C@H]3O)[C@H]3COC(=O)[C@H]23)OCO4)cc(OC)c1O` [etoposide] + Cn1sc(=O)n(Cc2ccccc2)c1=O [TDZD-8] (first compound 0.02 µM, partner dose 0.4 µM), for which the cell count came to 92.4%.

In turn, `Cn1cnc2c(F)c(Nc3ccc(Br)cc3Cl)c(C(=O)NOCCO)cc21` [selumetinib] + CO[C@H]1C[C@@H]2CC[C@@H](C)[C@@](O)(O2)C(=O)C(=O)N2CCCC[C@H]2C(=O)O[C@H]([C@H](C)C[C@@H]2CC[C@@H](OCCO)[C@H](OC)C2)CC(=O)[C@H](C)/C=C(\C)[C@@H](O)[C@@H](OC)C(=O)[C@H](C)C[C@H](C)/C=C/C=C/C=C/1C [everolimus] (first compound 0.015 µM, partner dose 0.02 µM) registered a cell count of 78.2%.

On to `Cn1cnc2c(F)c(Nc3ccc(Br)cc3Cl)c(C(=O)NOCCO)cc21` [selumetinib] + COc1ccc(C2=N[C@@H](c3ccc(Cl)cc3)[C@@H](c3ccc(Cl)cc3)N2C(=O)N2CCNC(=O)C2)c(OC(C)C)c1 [Nutlin-3] (first compound 0.015 µM, partner dose 0.1 µM), for which the cell count stood at 96.6%.

Turning to `C[C@]1(O)C[C@@H](c2nc(-c3ccc4ccc(-c5ccccc5)nc4c3)c3c(N)nccn32)C1` + CN(c1ncccc1CNc1nc(Nc2ccc3c(c2)CC(=O)N3)ncc1C(F)(F)F)S(C)(=O)=O [PF562271] (first compound 0.4 µM, partner dose 0.08 µM), the cell count stood at 95.3%.

Take `CCN(CC)CCNC(=O)c1c(C)[nH]c(/C=C2\C(=O)Nc3ccc(F)cc32)c1C` [sunitinib] + CC(=O)c1c(C)c2cnc(Nc3ccc(N4CCNCC4)cn3)nc2n(C2CCCC2)c1=O [palbociclib] (first compound 0.4 µM, partner dose 0.04 µM): the cell count worked out at 94.2%.

`C[C@]1(O)C[C@@H](c2nc(-c3ccc4ccc(-c5ccccc5)nc4c3)c3c(N)nccn32)C1` + CNC(=O)c1cc(Oc2ccc(NC(=O)Nc3ccc(Cl)c(C(F)(F)F)c3)cc2)ccn1 [sorafenib] (first compound 0.4 µM, partner dose 0.4 µM) showed a cell count of 102%.

Regarding `Cn1cnc2c(F)c(Nc3ccc(Br)cc3Cl)c(C(=O)NOCCO)cc21` [selumetinib] + COc1ccc(Cl)c(Nc2nc3ccccc3nc2NS(=O)(=O)c2cccc(NC(=O)C(C)(C)N)c2)c1 [XL147] (first compound 0.015 µM, partner dose 0.8 µM), the cell count is 97.2%.

In the case of `Cn1cnc2c(F)c(Nc3ccc(Br)cc3Cl)c(C(=O)NOCCO)cc21` [selumetinib] + CN(c1ncccc1CNc1nc(Nc2ccc3c(c2)CC(=O)N3)ncc1C(F)(F)F)S(C)(=O)=O [PF562271] (first compound 0.015 µM, partner dose 0.08 µM), the cell count is 89.8%.

In turn, `C[C@]1(O)C[C@@H](c2nc(-c3ccc4ccc(-c5ccccc5)nc4c3)c3c(N)nccn32)C1` + CCCCCCCCc1ccc(CCC(N)(CO)CO)cc1 [fingolimod] (first compound 0.4 µM, partner dose 2 µM) registered a cell count of 93.5%.

On to `Cn1cnc2c(F)c(Nc3ccc(Br)cc3Cl)c(C(=O)NOCCO)cc21` [selumetinib] + CCCCCCCCc1ccc(CCC(N)(CO)CO)cc1 [fingolimod] (first compound 0.015 µM, partner dose 2 µM), for which the cell count amounted to 92.8%.

Turning to `CCN(CC)CCNC(=O)c1c(C)[nH]c(/C=C2\C(=O)Nc3ccc(F)cc32)c1C` [sunitinib] + CN1CCN(c2ccc3nc(-c4c(N)c5c(F)cccc5[nH]c4=O)[nH]c3c2)CC1 [Dovitinib] (first compound 0.4 µM, partner dose 0.1 µM), the cell count was 101%.

The compound `Cn1cnc2c(F)c(Nc3ccc(Br)cc3Cl)c(C(=O)NOCCO)cc21` [selumetinib] + Cn1c(Nc2ccc(C(F)(F)F)cc2)nc2cc(Oc3ccnc(-c4ncc(C(F)(F)F)[nH]4)c3)ccc21 [CHIR265] (first compound 0.015 µM, partner dose 0.08 µM) yielded a cell count of 84.3%.

Regarding `COc1cc([C@@H]2c3cc4c(cc3[C@@H](O[C@@H]3O[C@@H]5CO[C@@H](C)O[C@H]5[C@H](O)[C@H]3O)[C@H]3COC(=O)[C@H]23)OCO4)cc(OC)c1O` [etoposide] + O=C(Nc1cc(C(F)(F)F)cc(C(F)(F)F)c1)c1cc(Cl)ccc1O [IMD0354] (first compound 0.02 µM, partner dose 0.016 µM), the cell count was 104%.

In the case of `CCN(CC)CCNC(=O)c1c(C)[nH]c(/C=C2\C(=O)Nc3ccc(F)cc32)c1C` [sunitinib] + CC(=O)O[C@@]12CO[C@@H]1C[C@H](O)[C@@]1(C)C(=O)[C@H](O)C3=C(C)[C@@H](OC(=O)[C@H](O)[C@@H](NC(=O)OC(C)(C)C)c4ccccc4)C[C@@](O)([C@@H](OC(=O)c4ccccc4)[C@H]21)C3(C)C [Docetaxel] (first compound 0.4 µM, partner dose 0.0001 µM), the cell count is 68.8%.

The compound `C[C@]1(O)C[C@@H](c2nc(-c3ccc4ccc(-c5ccccc5)nc4c3)c3c(N)nccn32)C1` + CN1CCN(c2ccc3nc(-c4c(N)c5c(F)cccc5[nH]c4=O)[nH]c3c2)CC1 [Dovitinib] (first compound 0.4 µM, partner dose 0.1 µM) gave a cell count of 102%.

`C[C@]1(O)C[C@@H](c2nc(-c3ccc4ccc(-c5ccccc5)nc4c3)c3c(N)nccn32)C1` + CC(C)C[C@H](NC(=O)[C@H](Cc1ccccc1)NC(=O)c1cnccn1)B(O)O [Bortezomib] (first compound 0.4 µM, partner dose 0.001 µM) yielded a cell count of 92.5%.
